Results on five compounds are retold here after patent US8383613B2, “Methods for the treatment of cancer” (Lankenau Institute for Medical Research, priority 2003, dated 2013).

Data set [1] deals with established tumors in MMTVneu mice. As to the kind of experiment: MMTVneu oncomouse breast cancer model, IDO inhibitor plus signal transduction inhibitor. The class given is in vivo, mouse. Conditions: two week course; 1MT 20 mg/day by subcutaneous time-release pellets.
The next data set concerns the target human IDO (Homo sapiens, UniProt P14902). Put plainly: IDO enzyme assay, kynurenine production, enzyme kinetics. Particulars: from Ki values. In kind it is biochemical.
Data set [2] in a line: HPLC analysis of mouse serum for level of compound. Particulars: male, FVB, sc, Serum concentration of 1MT, 2×140 mg 1MT pellets implanted subcutaneously, male FVB mice.
The subject of data set [3] is tumor growth in a mouse model. Particulars: Friberg et al. 2002; U.S. Pat. No. 6,482,416; cited from earlier work.
For data set [4], the system named is established tumors in MMTVneu mice. As to the kind of experiment: MMTVneu oncomouse breast cancer model, IDO inhibitor plus cytotoxic chemotherapeutic agent. Particulars: two week course; 1MT 20 mg/day pellets; paclitaxel or cisplatin i.v. at maximum-tolerated doses. The class given is in vivo, mouse. How it is done: Each data point was determined from an individual mouse and the bars indicate the mean of the data points as listed at the bottom of the graph.
The MMTVneu transgenic “oncomouse” model of breast cancer was also used to measure the effects of IDO inhibition and cytotoxic chemotherapeutic agents on tumor pathophysiology.
MMTVneu “oncomice” bearing similarly sized tumors of ˜150 mm^3 were randomly assigned to control or experimental treatment groups. Control mice were implanted with placebo time-release pellets (Innovative Research, Inc., Sarasota, Fla.).
The cytotoxic chemotherapeutic agents were prepared and delivered to the mice as follows. Paclitaxel was dissolved in equal volumes of absolute ethanol and the clinically-used solubilizing agent Cremophor® EL. The solution was sonicated up to 30 minutes and stored as a 20 mg/ml stock solution at 4° C. for up to one week. Before use, this solution was diluted further at 1:5 with sterile physiological saline. Paclitaxel formulated in this manner was administered to mice by a single bolus intravenous (i.v.) injection into the tail vein. Mouse tails can be warmed to facilitate identification and injection of the vein. […] The MTD of cisplatin (1 mg/kg) was obtained as a clinical preparation in saline and delivered as a bolus i.v. injection on the same schedule. […]

Sequence of UniProt P14902 (P14902 whole entry): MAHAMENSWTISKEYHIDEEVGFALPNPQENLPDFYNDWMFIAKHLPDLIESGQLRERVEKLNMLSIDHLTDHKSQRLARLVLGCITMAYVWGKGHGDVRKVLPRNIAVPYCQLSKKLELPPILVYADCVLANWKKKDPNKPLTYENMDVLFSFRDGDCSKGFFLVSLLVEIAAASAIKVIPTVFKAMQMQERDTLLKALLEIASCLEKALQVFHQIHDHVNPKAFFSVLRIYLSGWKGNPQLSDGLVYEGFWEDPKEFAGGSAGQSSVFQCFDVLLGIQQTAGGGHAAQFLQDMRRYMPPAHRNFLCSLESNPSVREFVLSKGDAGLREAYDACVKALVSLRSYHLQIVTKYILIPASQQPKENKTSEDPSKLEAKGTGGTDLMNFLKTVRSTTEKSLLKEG

Turning to `CC[C@H](C)[C@@H](CO[C@@H](Cc1ccccc1)C(=O)N[C@@H](CCS(C)(=O)=O)C(=O)OC(C)C)NC[C@@H](N)CS` [L-744,832], the “Effect on tumor growth” value in data set [1] is given as “retarded but did not block tumor growth”.

Take `CN1C(=O)C(Cc2c[nH]c3ccccc23)NC1=S` (stereo not drawn) [MTH-Trp, 3-(N-methyl-thiohydantoin)-indole]: the “Potency of direct IDO enzyme inhibition relative to 1MT” value at human IDO was “about 3 fold”.

Compound `Cn1cc(CC(N)C(=O)O)c2ccccc21` (racemic) [1MT, 1-methyl-DL-tryptophan] returned a concentration at 3 days in data set [2] of 104 µM. The “Effect on tumor growth” value in data set [3] was “only retarded and did not prevent tumor growth”.

In the case of `N.N.[Cl][Pt][Cl]` [Cisplatin, cisplatin], the “Effect on tumor growth” value in data set [4] is on record as “retarded but did not block tumor growth”.

Turning to `CC(=O)O[C@H]1C(=O)[C@@]2(C)[C@H]([C@H](OC(=O)c3ccccc3)[C@]3(O)C[C@H](OC(=O)[C@H](O)[C@@H](NC(=O)c4ccccc4)c4ccccc4)C(C)=C1C3(C)C)[C@]1(OC(C)=O)CO[C@@H]1C[C@@H]2O` [Taxol, paclitaxel], the “Effect on tumor growth” value in data set [4] was “retarded but did not block tumor growth”.
